Among all 110,000 compounds or so, about 230 (0.21%) showed an effect of 50% or more. The list shows a part of the results.
Biological target: DPAP1 (Plasmodium falciparum, UniProt Q8IIJ9)
Experiment: primary screen, percent inhibition; read by cleavage of a fluorogenic dipeptide substrate; higher = more effect of the substance
Set-up: species or system P. falciparum D10 trophozoite lysates; single well
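Further: 30 min substrate incubation versus DMSO and 10 µM JCP410 controls.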

DPAP1, sequence (Q8IIJ9 whole entry, looked up): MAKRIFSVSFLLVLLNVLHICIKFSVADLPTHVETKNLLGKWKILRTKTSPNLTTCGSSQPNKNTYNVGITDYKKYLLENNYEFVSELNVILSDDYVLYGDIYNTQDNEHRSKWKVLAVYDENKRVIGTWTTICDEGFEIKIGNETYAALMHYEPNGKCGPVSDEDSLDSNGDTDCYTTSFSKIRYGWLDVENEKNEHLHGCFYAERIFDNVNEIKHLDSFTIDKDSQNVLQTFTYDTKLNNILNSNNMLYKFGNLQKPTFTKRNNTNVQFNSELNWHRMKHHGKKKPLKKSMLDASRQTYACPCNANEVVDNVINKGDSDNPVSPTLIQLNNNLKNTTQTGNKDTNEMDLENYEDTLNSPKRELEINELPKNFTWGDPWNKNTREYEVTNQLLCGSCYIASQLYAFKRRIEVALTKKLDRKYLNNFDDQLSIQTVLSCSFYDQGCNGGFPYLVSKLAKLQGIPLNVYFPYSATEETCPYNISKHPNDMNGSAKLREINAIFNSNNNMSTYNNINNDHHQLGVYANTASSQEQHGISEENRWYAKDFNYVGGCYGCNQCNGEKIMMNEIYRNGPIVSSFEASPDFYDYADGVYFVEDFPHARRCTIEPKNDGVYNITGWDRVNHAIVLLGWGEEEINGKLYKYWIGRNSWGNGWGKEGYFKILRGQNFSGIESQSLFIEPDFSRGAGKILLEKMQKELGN

| SMILES | % Inhibition @ 10 uM |
| --- | --- |
| C=CCNC(=S)Nc1sc2c(c1C(=O)OCC)CCCC2 | 7.47% |
| Cn1cc(S(=O)(=O)N2CCCC2)cc1C(=O)N1CCc2ccccc2C1 | 0.813% |
| O=C1c2ccccc2-c2onc3c(Oc4ccc(Cl)cc4)cc(O)c1c23 | -2.19% |
| CCn1c(C)c(C)c2cc(C(=O)NCCN3CCCCC3C)ccc21 (stereo not shown) | 1.26% |
| COc1ccccc1CC(C)Nc1ccc(F)c(Cl)c1 (stereo not shown) | 2.7% |
| CCOC(=O)C1=C(C)N(C)C(=S)NC1c1cc(OC)ccc1OC (stereo not shown) | -3.98% |
| Cc1cccn2c(=O)c(/C=N/Cc3ccccc3)c(NCc3ccco3)nc12 | 12% |
| Cn1c(C(=O)NCC2CCCO2)cc2c(=O)n3ccccc3nc21 (stereo not shown) | -7.09% |
| c1cc2c3c(cccc3c1)C(N1CCOCC1)=N2 | -3.27% |
| CCOc1ccc(C(=O)Nc2sc3c(c2C(N)=O)CCC(C)C3)cc1 (stereo not shown) | -4.15% |
| CCOc1cccc(/C=C2/NC(=O)N(c3cccc(Cl)c3)C2=O)c1O | -3.04% |
| CN(C)c1ccc(C(=O)NC2CC(C)(C)NC(C)(C)C2)cc1 | 0.35% |
| COc1ccc(-c2noc(CN(C(=O)/C=C/c3ccccc3Cl)C(C)C)n2)cc1 | 4.15% |
| COc1cccc2cc(C(=O)N3CCN(C(=O)c4ccccc4)CC3)c(=O)oc12 | 2.17% |
| N#Cc1c(-c2ccccc2)nc2n(c1=O)CCS2 | -3.96% |
| CCOc1ccc(-c2nonc2NC(=O)CC(C)C)cc1OCC | 0.248% |
| Cc1ccc(CN2CCN(c3ccc([N+](=O)[O-])cc3)CC2)c(C)c1 | 4.81% |
| CSc1nc(O)c2c(-c3ccc(F)cc3)c3c(nc2n1)CC(C)(C)CC3=O | -0.95% |
| CC(CCc1ccccc1)NC(=O)CCCCn1c(=O)[nH]c2ccsc2c1=O (stereo not shown) | -0.228% |
| Cc1ccc(C2=NN(S(C)(=O)=O)C(c3cc4ccccc4nc3Cl)C2)cc1 (stereo not shown) | -2.65% |
| Cn1cccc1Cc1nnc(SCC(=O)N2CCOCC2)n1CCc1ccccc1 | -5.76% |
| COc1ccc(S(=O)(=O)Nc2ccc(S(=O)(=O)Nc3ccc(Cl)cc3)cc2)cc1OC | -6.51% |

| SMILES | % Inhibition @ 10 uM |
| --- | --- |
| NS(=O)(=O)c1ccc(CCNC(=O)c2nc(-c3ccc(Cl)cc3)n3c2CCCCC3)cc1 | 4.61% |
| Cc1ccc(C(=O)Nc2ccc(-c3nc4ncccc4o3)cc2)c2ccccc12 | -7.44% |
| CCOc1ccccc1N1CCN(C(=O)C23CC4CC(CC(C4)C2)C3)CC1 | -4.52% |
| C=CCC(N)(/C=C/c1ccccc1)CC=C | -4.43% |
| O=C(COc1ccc(Cl)cc1Cl)Nc1ccc(C(=O)O)cc1 | -3.65% |
| COC(=O)c1nnn(-c2ccc(C)cc2C)c1C(=O)OC | -7.46% |
| COc1cc(C=C2C(=O)N(C)C(=O)N(C)C2=O)ccc1OCc1ccc(C)cc1 | 9.09% |
| COc1ccc(/C=C(/NC(=O)c2ccco2)C(=O)NCCc2c[nH]c3ccccc23)cc1OC | -1.26% |
| NC(=O)NC(CC(c1ccccc1)c1ccccc1)c1ccccc1 (stereo not shown) | 4.7% |
| CCN1CCN(CCCNC(=O)C2CCN(S(=O)(=O)N3CCCCC3)CC2)CC1 | 0.387% |
| CCC(C)Oc1ccccc1/C=C1/SC(=O)NC1=O (stereo not shown) | 4.32% |
| CCSc1nnc(-c2ccccc2N)c(O)n1 | -1.56% |
| CN(CC(=O)NC1CCCCC1)S(=O)(=O)c1ccc(F)cc1 | -2.29% |
| NC(=O)c1c(N)sc2c1CCCCC2 | 43.2% |
| Cc1ccc(Cn2cc(C=O)c(-c3ccc(F)cc3)n2)cc1 | 3.3% |
| CCOc1ccccc1NC(=O)c1ccccc1Cl | 0.827% |
| CCOc1ccc(C(=O)C2=C(O)C(=O)N(CCN(C)C)C2c2ccccc2F)c(C)c1 (stereo not shown) | -1.93% |
| Oc1c2nc3ccccc3c-2ncn1Cc1ccccc1Cl | 3.24% |
| NC(=O)c1cc(S(=O)(=O)NCc2cccs2)cs1 | -1.39% |
| O=C(N/C(=C\c1cccnc1)C(=O)N1CCC(O)CC1)c1ccccc1 | -7.11% |
| CCOC(=O)C1=CN(Cc2ccc(Cl)cc2)C=C(C(=O)OCC)C1c1ccc2c(c1)OCO2 | -3.23% |
| CCO/C(O)=C1/C(C)=Nc2ncnn2C1c1cc(OC)ccc1OC (stereo not shown) | 0.0842% |

| SMILES | % Inhibition @ 10 uM |
| --- | --- |
| O=S(=O)(c1ccc(F)cc1)N1CCN(C/C=C/c2ccccc2)CC1 | -5.15% |
| CCCCCc1ccc(-c2ccc(-c3noc(-c4ccccc4Cl)n3)cc2)cc1 | 5.29% |
| CCC(NC(=O)C1CCC(C/N=c2/c(N3CCCCC3)c(O)c2=O)CC1)c1cccs1 (stereo not shown) | 1.02% |
| CCOC(=O)Cc1csc(NC(=O)c2cccc(F)c2)n1 | -0.0619% |
| O=C(O)c1c(F)c(F)c(F)c(F)c1Cc1ccccc1 | 0.146% |
| O=C1OC(c2ccc(Cl)cc2)=N/C1=C\C=C\c1ccccc1 | 5.94% |
| c1ccc(-c2cccs2)cc1 | -2.17% |
| O=C(CN1N=C(c2ccccc2)CCC1=O)NCc1cccs1 | 5.35% |
| O=C(/C=C/c1cccc([N+](=O)[O-])c1)NC1CCCCC1 | -2.12% |
| CC1CN(C2CC(=O)N(c3ccc(N4C(=O)CC(N5CC(C)OC(C)C5)C4=O)cc3)C2=O)CC(C)O1 (stereo not shown) | 12.3% |
| O=C(Nc1nnc(CCN2CCCCC2)s1)c1ccco1 | -4.42% |
| COC(=O)c1c2c(c[n+](C)c1C)COC(C)OC2 (stereo not shown) | -1.72% |
| Cc1c(C(=O)N2CCN(C)CC2)oc2ccc3c(c12)C(=O)CC(C)(c1ccc(Cl)cc1)O3 (stereo not shown) | 2.84% |
| Cc1ccccc1NC(=O)CCN1C(=O)CSC1=O | -3.25% |
| O=C(C1CCCN(c2ncnc3c2nc2n3CCCCC2)C1)N1CCC(N2CCCCC2)CC1 (stereo not shown) | -1.21% |
| CCCNC(=O)Cn1c(=O)sc2ccccc21 | 0.526% |
| COc1ccc(CN2CCN(C(=O)c3cccc(F)c3)CC2)cc1Br | -18.8% |
| CC(=O)c1cc(C#N)c(SCC(=O)c2ccc(Cl)cc2)nc1C | 2.7% |
| COc1ccc(CCNC(=O)N2CCOCC2)cc1OC | 3.59% |
| CCSc1nc2c(c(=O)n1C1CCCC1)C1(CCCCC1)Cc1ccccc1-2 | -0.267% |

Source: paper PMC6919601, “Identification of Plasmodium dipeptidyl aminopeptidase allosteric inhibitors by high throughput screening” (PLoS ONE, 2019)
